Experimental findings from a collection of fitness landscapes (doi:10.1126/science.1257360) are described below.

Some of the results follow. Where only a bound is given, the exact number is not on record here.

B1: PhoQ; a variant is named by its letters at X, in order, P23837 (parent)
chain: MKKLLRLFFPLSLRVRFLLATAAVVLVLSLAYGMVALIGYSVSFDKTTFRLLRGESNLFYTLAKWENNKLHVELPENIDKQSPTMTLIYDENGQLLWAQRDVPWLMKMIQPDWLKSNGFHEIEADVNDTSLLLSGDHSIQQQLQEVREDDDDAEMTHSVAVNVYPATSRMPKLTIVVVDTIPVELKSSYMVWSWFIYVLSANLLLVIPLLWVAAWWSLRPIEALAKEVRELEEHNRELLNPATTRELTSLVRNLNRLLKSERERYDKYRTTLTDLTHSLKTPLXXLQXXLRSLRSEKMSVSDAEPVMLEQISRISQQIGYYLHRASMRGGTLLSRELHPVAPLLDNLTSALNKVYQRKGVNISLDISPEISFVGEQNDFVEVMGNVLDNACKYCLEFVEISARQTDEHLYIVVEDDGPGIPLSKREVIFDRGQRVDTLRPGQGVGLAVAREITEQYEGKIVAGESMLGGARMEVIFGRQHSAPKDE

The variants in this assay derive from B1. Kind of assay: enrichment ratio after two sorts for PhoP signalling (ratio (wild type AVST 3.29)); higher = more functional. The conditions noted are these: with PhoP (E. coli).
In the case of IWLI, the enrichment ratio is no more than 0.25.
As to RRGA, the enrichment ratio is no more than 0.25.
On to DNTD, for which the enrichment ratio is no more than 0.25.
On to INSF, for which the enrichment ratio was no more than 0.25.
Take QAYG: the enrichment ratio worked out at 8.22.
GARN: the enrichment ratio was no more than 0.25.
Regarding IRLV, the enrichment ratio is no more than 0.25.
In the case of FADH, the enrichment ratio is no more than 0.25.
Turning to LQPQ, the enrichment ratio is no more than 0.25.
Regarding EMPN, the enrichment ratio is no more than 0.25.
For the variant IRDV, the enrichment ratio was no more than 0.25.
Then IDPI, with no more than 0.25; and RCNH, with no more than 0.25.
For LSAY, the enrichment ratio is no more than 0.25.
On to EMRA, for which the enrichment ratio is no more than 0.25.
With DVRF, the enrichment ratio was no more than 0.25.
In the case of YLCW it was no more than 0.25.
For the variant EELR, the enrichment ratio was no more than 0.25.
Take ARAQ: the enrichment ratio was no more than 0.25.
NFAH: the enrichment ratio was no more than 0.25.
For RLEL, the enrichment ratio was no more than 0.25.
In the case of IEID it was no more than 0.25; in that of LNKD, no more than 0.25.
With EVGR, the enrichment ratio is no more than 0.25.
In the case of WLSW it was no more than 0.25.
Regarding MVCK, the enrichment ratio was found to be 2.16.
On to AWVI, for which the enrichment ratio turned out to be 0.484.
On to NGPV, for which the enrichment ratio was no more than 0.25.
Turning to FMAR, the enrichment ratio was no more than 0.25.
For the variant ANRH, the enrichment ratio is no more than 0.25.
Then MTAE, with no more than 0.25; and FFKW, with no more than 0.25.
For the variant YHKK, the enrichment ratio is no more than 0.25.
For the variant WRPV, the enrichment ratio is no more than 0.25.
In the case of MGRF it was no more than 0.25; in that of NWVC, no more than 0.25.
In the case of SWEL it was no more than 0.25.
As to PKNW, the enrichment ratio was no more than 0.25.
As to VGEW, the enrichment ratio was no more than 0.25.
Consider PAQS, for which the enrichment ratio is no more than 0.25.
Take QYGN: the enrichment ratio was no more than 0.25.
As to DWPD, the enrichment ratio was no more than 0.25.
As for GYSM, the enrichment ratio is no more than 0.25.
In the case of AKYC, the enrichment ratio is 0.363.
As to YKDG, the enrichment ratio was no more than 0.25.
MHNA: the enrichment ratio is no more than 0.25.
Consider DYMT, for which the enrichment ratio is no more than 0.25.
In the case of SIHP, the enrichment ratio is no more than 0.25.
Consider MRHD, for which the enrichment ratio was no more than 0.25.
In the case of DWMV it was no more than 0.25; in that of LGKA, no more than 0.25; in that of LAHL, 5.85.
Consider PSER, for which the enrichment ratio is no more than 0.25.
For the variant SLRI, the enrichment ratio is no more than 0.25.
With AVFF, the enrichment ratio was no more than 0.25.
Take FDRD: the enrichment ratio is no more than 0.25.
As for IGKT, the enrichment ratio was no more than 0.25.
On to MEGC, for which the enrichment ratio is no more than 0.25.
Turning to EPYF, the enrichment ratio is no more than 0.25.
In the case of GFLE it was no more than 0.25.
Then MAIF, with no more than 0.25; and EEDP, with no more than 0.25; and PKCR, with no more than 0.25.
Turning to SPCS, the enrichment ratio was no more than 0.25.
In the case of HARF, the enrichment ratio is no more than 0.25.
With LGHQ, the enrichment ratio was no more than 0.25.
Take SDKY: the enrichment ratio is no more than 0.25.
In the case of MMWW, the enrichment ratio is no more than 0.25.
In the case of PVMA it was no more than 0.25; in that of YSDF, no more than 0.25.
Take RYDM: the enrichment ratio was no more than 0.25.
For KTMV, the enrichment ratio was no more than 0.25.
For STAF, the enrichment ratio came out at 7.65.
As for TETW, the enrichment ratio was 4.76.
REFG: the enrichment ratio is no more than 0.25.
Regarding KETP, the enrichment ratio is no more than 0.25.
For ITMQ, the enrichment ratio worked out at 1.8.
In the case of MFEY it was no more than 0.25; in that of KSGG, no more than 0.25; in that of VEKI, no more than 0.25.
Take PYHE: the enrichment ratio is no more than 0.25.
Consider NDCF, for which the enrichment ratio is no more than 0.25.
Consider YFNG, for which the enrichment ratio is no more than 0.25.
Take WKFD: the enrichment ratio is no more than 0.25.
In the case of IYWT, the enrichment ratio is no more than 0.25.
As for RNGA, the enrichment ratio was no more than 0.25.
Consider SVWQ, for which the enrichment ratio is no more than 0.25.
Regarding KGDM, the enrichment ratio is no more than 0.25.
For NYQE, the enrichment ratio was no more than 0.25.
For YLMI, the enrichment ratio is no more than 0.25.
For IEQI, the enrichment ratio was no more than 0.25.
On to IPWY, for which the enrichment ratio is no more than 0.25.
For HDPN, the enrichment ratio was no more than 0.25.
For the variant NPKV, the enrichment ratio is no more than 0.25.
For the variant LQTD, the enrichment ratio is no more than 0.25.
As for PWVQ, the enrichment ratio is no more than 0.25.
As to MYHL, the enrichment ratio is no more than 0.25.
Then SKSQ, with 1.28; and EMYM, with no more than 0.25; and HYCI, with no more than 0.25.
As to PWNI, the enrichment ratio was no more than 0.25.
Then VARI, with no more than 0.25.
With RSGP, the enrichment ratio is no more than 0.25.
For the variant ASDC, the enrichment ratio is no more than 0.25.
As for YYTW, the enrichment ratio was no more than 0.25.
Regarding LAGV, the enrichment ratio was no more than 0.25.
On to EHCP, for which the enrichment ratio is no more than 0.25.
Take NWDN: the enrichment ratio is no more than 0.25.
With RGHI, the enrichment ratio is no more than 0.25.
As for ATVS, the enrichment ratio was determined as 2.56.
As for TVTN, the enrichment ratio came to 4.67.
KLPR: the enrichment ratio is no more than 0.25.
SDSE: the enrichment ratio is no more than 0.25.
In the case of PRAQ, the enrichment ratio was no more than 0.25.
Consider QPTT, for which the enrichment ratio was no more than 0.25.
IFWA: the enrichment ratio was no more than 0.25.
As for VDWT, the enrichment ratio is no more than 0.25.
Then DCNG, with no more than 0.25; and SYFN, with no more than 0.25.
In the case of AVFH it was no more than 0.25.
Take KLAS: the enrichment ratio was no more than 0.25.
HYQF: the enrichment ratio is no more than 0.25.
For NFIW, the enrichment ratio is no more than 0.25.
Then RLIV, with no more than 0.25.
Take KDIE: the enrichment ratio was no more than 0.25.
As for QVVG, the enrichment ratio was no more than 0.25.
As to ENTC, the enrichment ratio is no more than 0.25.
Consider VVRW, for which the enrichment ratio is no more than 0.25.
In the case of QFRP, the enrichment ratio was no more than 0.25.
Regarding NSRT, the enrichment ratio is no more than 0.25.
Regarding ACLS, the enrichment ratio amounted to 6.09.
As to FYSN, the enrichment ratio is no more than 0.25.
For AWMH, the enrichment ratio was no more than 0.25.
In the case of SSYR it was no more than 0.25; in that of VMEW, no more than 0.25.
For WNDK, the enrichment ratio was no more than 0.25.
With IMDS, the enrichment ratio was no more than 0.25.
Turning to SYDR, the enrichment ratio was no more than 0.25.
In the case of DNMN it was no more than 0.25; in that of SWHN, no more than 0.25.
Regarding FPYM, the enrichment ratio was no more than 0.25.
For the variant KFGP, the enrichment ratio is no more than 0.25.
On to SLPL, for which the enrichment ratio stood at 2.37.
Then AQFY, with no more than 0.25.
Consider SMFT, for which the enrichment ratio is 0.876.
In the case of IAYC it was no more than 0.25; in that of KNRC, no more than 0.25; in that of MQFT, 10.8.
In the case of SRHP, the enrichment ratio is no more than 0.25.
In the case of YDWW it was no more than 0.25; in that of QQLF, no more than 0.25.
In the case of EGLV it was 1.8.
Then VYGQ, with no more than 0.25.
